The values below come from a collection of fitness landscapes (doi:10.1126/science.1257360).

The other results are listed elsewhere or left out. A value given as a limit tells only on which side of the number the result lay.

B1: PhoQ; a variant is named by its letters at X, in order, P23837 (parent)
chain: MKKLLRLFFPLSLRVRFLLATAAVVLVLSLAYGMVALIGYSVSFDKTTFRLLRGESNLFYTLAKWENNKLHVELPENIDKQSPTMTLIYDENGQLLWAQRDVPWLMKMIQPDWLKSNGFHEIEADVNDTSLLLSGDHSIQQQLQEVREDDDDAEMTHSVAVNVYPATSRMPKLTIVVVDTIPVELKSSYMVWSWFIYVLSANLLLVIPLLWVAAWWSLRPIEALAKEVRELEEHNRELLNPATTRELTSLVRNLNRLLKSERERYDKYRTTLTDLTHSLKTPLXXLQXXLRSLRSEKMSVSDAEPVMLEQISRISQQIGYYLHRASMRGGTLLSRELHPVAPLLDNLTSALNKVYQRKGVNISLDISPEISFVGEQNDFVEVMGNVLDNACKYCLEFVEISARQTDEHLYIVVEDDGPGIPLSKREVIFDRGQRVDTLRPGQGVGLAVAREITEQYEGKIVAGESMLGGARMEVIFGRQHSAPKDE

Variants of B1 are the subject of the assay. In words: enrichment ratio after two sorts for PhoP signalling (ratio (wild type AVST 3.29)); higher = more functional. The conditions noted are these: with PhoP (E. coli).
On to TDMT, for which the enrichment ratio is 10.8.

In the case of YVFD, the enrichment ratio is ≤ 0.25. For the variant MRIM, the enrichment ratio is ≤ 0.25. In the case of LEWW, the enrichment ratio was ≤ 0.25. Take KILC: the enrichment ratio is ≤ 0.25. Regarding ERQQ, the enrichment ratio was ≤ 0.25. For VHHA, the enrichment ratio is ≤ 0.25. In the case of WFDC it was ≤ 0.25; in that of EVHE, ≤ 0.25. In the case of LEDI, the enrichment ratio is ≤ 0.25. For MNEF, the enrichment ratio is ≤ 0.25. In the case of CITP it was ≤ 0.25; in that of AWIF, ≤ 0.25; in that of HDNA, ≤ 0.25.

IFGK: the enrichment ratio was ≤ 0.25.

Turning to NQEP, the enrichment ratio was ≤ 0.25. DYSQ: the enrichment ratio was ≤ 0.25. For VKKN, the enrichment ratio is ≤ 0.25. Take WIGS: the enrichment ratio is ≤ 0.25. The figure for PHCY is ≤ 0.25; for ECFQ it is ≤ 0.25. Regarding GAIW, the enrichment ratio was ≤ 0.25. FEMH: the enrichment ratio is ≤ 0.25. As for EVSK, the enrichment ratio is ≤ 0.25.

For the variant STGV, the enrichment ratio is 13.4.

Take GFHR: the enrichment ratio is ≤ 0.25. ERDV: the enrichment ratio is ≤ 0.25.

With MPDR, the enrichment ratio was ≤ 0.25. As to WQYY, the enrichment ratio is ≤ 0.25. For the variant QDNI, the enrichment ratio is ≤ 0.25. Take QVWM: the enrichment ratio was determined as 6.65. The figure for EQHE is ≤ 0.25. Turning to QESH, the enrichment ratio turned out to be 2.

In the case of SMVY, the enrichment ratio is 6.01.

Turning to CNSL, the enrichment ratio was ≤ 0.25.

With PIQC, the enrichment ratio was ≤ 0.25. Turning to FAPR, the enrichment ratio is ≤ 0.25. In the case of ASEI, the enrichment ratio was ≤ 0.25. QVPM: the enrichment ratio is ≤ 0.25. For IFQE, the enrichment ratio was ≤ 0.25. For VVYD, the enrichment ratio is ≤ 0.25. Turning to NKVS, the enrichment ratio was ≤ 0.25. As to PLGA, the enrichment ratio is ≤ 0.25. With EVTK, the enrichment ratio is ≤ 0.25. With DVGV, the enrichment ratio was ≤ 0.25.

Take APQG: the enrichment ratio was ≤ 0.25. Take PSCE: the enrichment ratio was ≤ 0.25. On to IPQQ, for which the enrichment ratio was ≤ 0.25. With DREY, the enrichment ratio is ≤ 0.25.

Regarding TDYY, the enrichment ratio is ≤ 0.25.

With VDWW, the enrichment ratio is ≤ 0.25. The figure for FFRR is ≤ 0.25; for KMFA it is ≤ 0.25; for YDHY it is ≤ 0.25. In the case of KTHM, the enrichment ratio is ≤ 0.25. Regarding VWRP, the enrichment ratio was ≤ 0.25. ALLT: the enrichment ratio is 0.993. On to DPSW, for which the enrichment ratio is ≤ 0.25.

As to ITWD, the enrichment ratio was ≤ 0.25. Take GKAR: the enrichment ratio was ≤ 0.25.

Turning to RNDF, the enrichment ratio was ≤ 0.25. The figure for WSTG is ≤ 0.25. In the case of APVP it was ≤ 0.25; in that of LRHL, ≤ 0.25; in that of GAID, ≤ 0.25. Take MKNT: the enrichment ratio is ≤ 0.25. As for KDDD, the enrichment ratio is ≤ 0.25. In the case of WENQ it was ≤ 0.25. As to YISR, the enrichment ratio was ≤ 0.25. With THQI, the enrichment ratio amounted to 24.1.

Take YNMW: the enrichment ratio was ≤ 0.25. With IEDG, the enrichment ratio was ≤ 0.25. As for IRKV, the enrichment ratio was ≤ 0.25. With KQIG, the enrichment ratio was ≤ 0.25.

As for DQIV, the enrichment ratio was ≤ 0.25. In the case of SMVP, the enrichment ratio is ≤ 0.25. As for YLNL, the enrichment ratio was ≤ 0.25.

For YIYM, the enrichment ratio was ≤ 0.25. As to YRQS, the enrichment ratio was ≤ 0.25. On to RCWV, for which the enrichment ratio was ≤ 0.25. As for NNEM, the enrichment ratio was ≤ 0.25. The figure for KCWM is ≤ 0.25; for HGVD it is ≤ 0.25.

Regarding LYNW, the enrichment ratio was ≤ 0.25. With IGQL, the enrichment ratio was ≤ 0.25. The figure for THYY is ≤ 0.25. Turning to GPMM, the enrichment ratio was ≤ 0.25. PDYP: the enrichment ratio was ≤ 0.25.

In the case of AYRW, the enrichment ratio was ≤ 0.25.

As to ENHG, the enrichment ratio was ≤ 0.25. On to KLPG, for which the enrichment ratio was ≤ 0.25. As to ANWG, the enrichment ratio is ≤ 0.25. DCGI: the enrichment ratio is ≤ 0.25. As to MSDY, the enrichment ratio was ≤ 0.25.

With KRPS, the enrichment ratio is ≤ 0.25.

In the case of AACF, the enrichment ratio was determined as 7.35. In the case of ARVA it was ≤ 0.25. For the variant TCRM, the enrichment ratio came out at 3.18. As for PIVP, the enrichment ratio was ≤ 0.25. As to QQSR, the enrichment ratio is ≤ 0.25. For the variant ISSQ, the enrichment ratio was ≤ 0.25. The figure for GMDF is ≤ 0.25. On to DTLP, for which the enrichment ratio was ≤ 0.25. Regarding HNKV, the enrichment ratio was ≤ 0.25.

Regarding KDFS, the enrichment ratio was ≤ 0.25.

On to AKWS, for which the enrichment ratio was ≤ 0.25. For the variant AKFH, the enrichment ratio is ≤ 0.25.

For the variant KVHL, the enrichment ratio is ≤ 0.25. Take ETRP: the enrichment ratio is ≤ 0.25.

As for VRKL, the enrichment ratio is ≤ 0.25. In the case of ECEI, the enrichment ratio was ≤ 0.25. Take VYPT: the enrichment ratio was ≤ 0.25. Regarding VMSW, the enrichment ratio is ≤ 0.25. LNLN: the enrichment ratio is ≤ 0.25. In the case of TCGQ it was ≤ 0.25.

With DRAP, the enrichment ratio is ≤ 0.25. On to AAMY, for which the enrichment ratio was ≤ 0.25. In the case of EVMG, the enrichment ratio was ≤ 0.25. In the case of AAYG, the enrichment ratio is ≤ 0.25. Consider NNMR, for which the enrichment ratio is ≤ 0.25. In the case of EEKS, the enrichment ratio is ≤ 0.25. Take AGHK: the enrichment ratio was ≤ 0.25. With MHSI, the enrichment ratio is ≤ 0.25. VNVC: the enrichment ratio is ≤ 0.25. Turning to MKTL, the enrichment ratio was ≤ 0.25.

Take YERP: the enrichment ratio is ≤ 0.25. The figure for GDYI is ≤ 0.25; for FCIM it is ≤ 0.25; for RQKV it is ≤ 0.25. As to WDHY, the enrichment ratio is ≤ 0.25. With YPKA, the enrichment ratio is ≤ 0.25. In the case of RMTP it was ≤ 0.25; in that of AMKQ, ≤ 0.25; in that of VNSR, ≤ 0.25. In the case of IAPS it was ≤ 0.25; in that of FCTL, ≤ 0.25. VISD: the enrichment ratio was ≤ 0.25. As for YAMN, the enrichment ratio was ≤ 0.25. Take KEGD: the enrichment ratio is ≤ 0.25. Turning to EVLW, the enrichment ratio was ≤ 0.25.

Take VKME: the enrichment ratio is ≤ 0.25. With VYKK, the enrichment ratio was ≤ 0.25. In the case of RDSD it was ≤ 0.25; in that of FIFM, ≤ 0.25. For the variant DCKT, the enrichment ratio was ≤ 0.25.

For LRIS, the enrichment ratio was ≤ 0.25. As to LIFN, the enrichment ratio is ≤ 0.25.

Take TSAW: the enrichment ratio is ≤ 0.25. Turning to GGFL, the enrichment ratio was ≤ 0.25.

In the case of DTPS, the enrichment ratio is ≤ 0.25.

For YMPG, the enrichment ratio was ≤ 0.25. With NSMH, the enrichment ratio is ≤ 0.25.

DCHA: the enrichment ratio was ≤ 0.25.
